Laboratory results taken from PubChem BioAssay AID1345083 (National Center for Advancing Translational Sciences (NCATS), 2018).
Where “and” joins values, the source holds several entries; their conditions need not be identical. Equal entries are not always repeated. Hit rate of the full screen: of about 94,000 compounds, about 6,200 (6.6%) were called active. The inconclusive results got no clear call from the source; some entries with a clear call stand among them for comparison. Calls follow the shape of the dose curve; as a rule, active = well fitted inhibition curve with a large enough effect; inconclusive = small, poorly fitted or top-dose-only effect; inactive = flat fitted curve, though single readings scatter. Potencies beside an inconclusive call are fits to weak or partial responses and may not hold up.

assay: Cytotoxic Profiling in HEK 293 Cell Line of Diverse Libraries Using Quantitative High-Throughput Screening; conditions: HEK 293 viability, ATP luminescence (CellTiter-Glo), 48-72 h; activity change, negative = cytotoxicity: at 115 µM (top of the series) unless noted; series mostly up to 115 µM; also: nearly all actives have a fitted effect of over 60% in size
How it was run: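 ATP-coupled CellTiter-Glo luminescence served as viability read-out, recorded 10 min after reagent addition at room temperature. HEK 293 cells, 250 cells/well, had been incubated with pintool-transferred compound for 48 or 72 hr at 37 degree Celsius.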
% is scaled to controls: 0 for no effect and ±100 for the full control effect; potency is read from the fitted curve at half-maximal effect; tags tell the direction and shape of the fitted curve.

| SMILES | Potency | activity change, negative = cytotoxicity | outcome |
| --- | --- | --- | --- |
| C=Cc1cccc(-c2nccn2-c2cccc(CN)c2)c1 | inconclusive: 44.7 µM [inhibitor, partial curve, poor fit] | – | – |
| COC(=O)[C@H](NC(=O)[C@@H]1C[C@H](NC(=O)Nc2cccc(SC)c2)CN1C(=O)c1cccn1C)C(C)C | – | inactive: -0.105% | – |
| COC1CCN(C(=O)C2(C)CN(Cc3ccccc3)Cc3ccc(Nc4ccccc4)nc32)CC1 (centres undefined) | inconclusive: 35.5 µM [inhibitor, full curve, poor fit] | – | – |
| O=C(CCc1nc2ccccc2s1)N1CCC(Cc2noc(C3CCOCC3)n2)C1 (centres undefined) | inconclusive: 70.8 µM [inhibitor, single point] | – | – |
| Cn1cnc(S(=O)(=O)N2CC(F)(F)C[C@H]2c2nc(C3CC3)no2)c1 | – | inactive: 4.07% | – |
| COc1cccc(NC(=O)N[C@H]2CCN(C(=O)c3cnccn3)[C@@H]2C(=O)N[C@@H](Cc2cccs2)C(N)=O)c1 | – | inactive: 3.51% | – |
| Cc1cc2c(-c3ccccc3C)nc(-c3c(C)noc3C)cc2[nH]1 | inconclusive: 100 µM [inhibitor, partial curve, poor fit] | – | – |
| Cn1c(CO[C@H]2CN(C(=O)c3ccc(Cl)cc3)C[C@H]2F)nc2ccccc21 | inconclusive: 100 µM [inhibitor, partial curve, poor fit] | – | – |
| c1cncc(CN2CCC(Oc3nccnc3N3CCc4ccccc43)C2)c1 (centres undefined) | inconclusive: 89.1 µM [inhibitor, partial curve, poor fit] | – | – |
| O=C(c1ccc(OC2CCN(Cc3c[nH]c4ccccc34)CC2)cc1)N1CCCCC1 | active: 22.4 µM | – | – |
| O=C(Cc1cccc(F)c1)N1CCC(c2nc(-c3ccccc3)no2)C1 (centres undefined) | inconclusive: 28.2 µM [inhibitor, partial curve, poor fit] | – | – |
| COCC(=O)NCc1cc2n(n1)CCCN(Cc1cnn(C)c1C)C2 | – | – | inactive |
| CCCCOc1ccc(C(=O)N2CCC[C@H]2c2nc(-c3ccc(C)cc3)no2)cc1 | active: 22.4 µM | – | – |
| O=C(NCc1ccccc1)c1nc2c(o1)CCN(Cc1ccc(F)cc1F)CC2 | active: 100 µM | – | – |
| Cc1ccccc1-c1ncc2c(n1)OCCN(c1ccccc1)C2=O | inconclusive: 79.4 µM [inhibitor, partial curve, poor fit] | – | – |
| Cc1ccc(-c2cccc(CN3CCCC3C(=O)NCc3ccc(F)cc3F)c2)cc1Cl (centres undefined) | active: 44.7 µM | – | – |
| CCC(=O)N1CCCN(S(C)(=O)=O)c2ccccc21 | inconclusive: 89.1 µM [inhibitor, single point] | – | – |
| O=C(c1ccc(C(F)(F)F)cc1)N1CCN(C(=O)c2nc3cccnc3n(Cc3ccccc3)c2=O)CC1 | inconclusive: 79.4 µM [inhibitor, partial curve, poor fit] | – | – |
| O=C1CCCN1c1ccc(Cn2ccn3nc(-c4ccc(F)cc4)c(CO)c3c2=O)cc1 | inconclusive: 20 µM [inhibitor, full curve] | – | – |
| O=c1[nH]c(C2CCCN(Cc3cccc(-c4cccs4)c3)C2)nc2ccc(F)cc12 (centres undefined) | active: 35.5 µM and active: 31.6 µM | – | – |

| SMILES | Potency | activity change, negative = cytotoxicity | outcome |
| --- | --- | --- | --- |
| O=C(Nc1ccccc1F)N1CC2CCC(C1)N2Cc1cccc(-c2cccs2)c1 | inconclusive: 56.2 µM [inhibitor, partial curve, poor fit] | – | – |
| COc1ccc(CN2CC(c3ncc4c(-c5ccccc5)nccn34)C2)cc1O | inconclusive: 89.1 µM [inhibitor, partial curve, poor fit] | – | – |
| COc1cc(OC)cc(C(=O)NCC2CCCN(Cc3cc4ccccc4o3)C2)c1 (centres undefined) | inconclusive: 50.1 µM [inhibitor, partial curve, poor fit] | – | – |
| O=C(NC1CCCC1)[C@@H]1CCCN1c1nccc(Nc2ccccc2Cl)n1 | inconclusive: 35.5 µM [inhibitor, partial curve, poor fit] | – | – |
| CCCCNc1nc2c(s1)C[C@]1(C)CC[C@@H]3[C@H](OC(=O)[C@H]3C)[C@H]1[C@@H]2C | inconclusive: 50.1 µM [inhibitor, partial curve, poor fit] | – | – |
| COc1ccc(CNC(=O)c2cc(-c3ccccc3C(F)(F)F)nc3[nH]ncc23)cc1OC | inconclusive: 50.1 µM [inhibitor, partial curve, poor fit] | – | – |
| COc1cccc(NC(=O)Cn2c(C)ccc(NC(=O)Nc3ccc(C)cc3)c2=O)c1 | active: 79.4 µM | – | – |
| COc1ccccc1CN1CCc2nc(C(=O)NCc3cccc(F)c3)oc2CC1 | inconclusive: 100 µM [inhibitor, partial curve, poor fit] | – | – |
| CC(C)[C@@H]1CN(c2nccc(C(F)(F)F)n2)C[C@H]1NS(C)(=O)=O | inconclusive: 89.1 µM [inhibitor, single point] | – | – |
| O=c1[nH]c(N2CCOCC2)nc2c1CCN(Cc1cc(F)c(F)c(F)c1)CC2 | – | inactive: -12.7% | – |
| CC(=O)N1CCn2cc(C(=O)NCc3ccc(Cl)nc3)nc2C1 | – | – | inactive |
| O=C(c1cc(-c2ccccc2F)cc2c1OCCN2Cc1cccnc1)N1CCCC1 | inconclusive: 79.4 µM [inhibitor, partial curve, poor fit] | – | – |
| Cc1ccc(C(=O)N2CCN(C(=O)c3nc4cccnc4n(Cc4ccccc4)c3=O)CC2)cc1 | – | inactive: -5.45% | – |
| O=C(NC1CCCN(c2cc(-c3ccc(F)cc3)[nH]n2)C1)c1ccccc1 (centres undefined) | inconclusive: 50.1 µM [inhibitor, partial curve, poor fit] | – | – |
| O=C(NC1CCN(c2cc(-c3ccccc3)[nH]n2)C1)c1cccc(F)c1 (centres undefined) | inconclusive: 79.4 µM [inhibitor, single point] | – | – |
| O=C(Cc1ccccc1F)NCCC1CCN(C(=O)Nc2cc(F)ccc2F)CC1 | inconclusive: 79.4 µM [inhibitor, single point] | – | – |
| CCCc1ccc(S(=O)(=O)N2CCN(C3(CC)CCN(C(=O)NC)C3)CC2)cc1 (centres undefined) | inconclusive: 89.1 µM [inhibitor, single point] | – | – |
| CC(C)(C)c1nc(C(=O)N2CCN(c3ncccn3)CC2)n2ccncc12 | inconclusive: 79.4 µM [inhibitor, partial curve, poor fit] | – | – |
| O=C(c1ccc(-c2noc(C3CC3)n2)cc1)N1CCC2(CCOCC2)CC1 | – | inactive: -22.2% | – |
